# No constants are given. Whether binding was seen depends on the method and setting. For some of these results: In cells and extracts the contact can be indirect. Tags and fused reporters may be left off the sequences shown. Some entries that bind do so weakly or less than the wild type.
# T1: Arabidopsis 14-3-3 isoform omega, yeast two-hybrid fusion (Arabidopsis) (UniProt Q01525)
# T1 sequence: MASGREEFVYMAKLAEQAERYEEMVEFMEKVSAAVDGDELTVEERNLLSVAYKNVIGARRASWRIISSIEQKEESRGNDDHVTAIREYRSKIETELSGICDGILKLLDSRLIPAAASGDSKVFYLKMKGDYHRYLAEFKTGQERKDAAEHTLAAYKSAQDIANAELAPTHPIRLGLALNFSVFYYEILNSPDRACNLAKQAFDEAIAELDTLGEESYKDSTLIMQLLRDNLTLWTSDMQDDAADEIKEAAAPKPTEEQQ
# T2: Arabidopsis 14-3-3 isoform epsilon, yeast two-hybrid fusion (Arabidopsis) (UniProt P48347)
# T2 sequence: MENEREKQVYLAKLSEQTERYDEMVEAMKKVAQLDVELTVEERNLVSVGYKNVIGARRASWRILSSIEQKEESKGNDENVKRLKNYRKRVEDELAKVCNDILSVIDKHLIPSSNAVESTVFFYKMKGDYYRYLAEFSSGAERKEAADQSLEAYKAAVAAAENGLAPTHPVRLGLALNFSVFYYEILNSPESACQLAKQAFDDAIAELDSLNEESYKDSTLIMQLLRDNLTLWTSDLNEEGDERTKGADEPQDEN
# T3: 14-3-3 omega:mEGFP (Arabidopsis) (UniProt Q01525)
# T3 sequence: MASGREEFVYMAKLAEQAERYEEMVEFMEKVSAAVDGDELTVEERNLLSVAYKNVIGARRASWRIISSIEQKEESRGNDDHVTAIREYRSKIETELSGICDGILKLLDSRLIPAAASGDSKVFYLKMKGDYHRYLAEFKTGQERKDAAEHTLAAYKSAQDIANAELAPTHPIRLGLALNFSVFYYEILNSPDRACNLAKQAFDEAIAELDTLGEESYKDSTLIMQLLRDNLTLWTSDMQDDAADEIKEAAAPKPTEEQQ
# Legend:
# [1] = molecular target: T1, Arabidopsis 14-3-3 isoform omega, yeast two-hybrid fusion (Arabidopsis); experiment: two-hybrid; constructs in pGADT7 and pGBKT7 co-transformed into yeast strain PJ69-4A; ADE2 reporter, growth on SD medium lacking adenine
# [2] = molecular target: T2, Arabidopsis 14-3-3 isoform epsilon, yeast two-hybrid fusion (Arabidopsis); experiment: as above
# [3] = molecular target: T3, 14-3-3 omega:mEGFP (Arabidopsis); experiment: co-IP; N. benthamiana leaves co-expressing both proteins (35S promoter), kept under constant light for 42 h or dark-adapted and treated with blue light (10 μmol m^-2 s^-1, 40 min); crude extract precipitated with GFP beads (GFP-Trap); anti-GFP and anti-RFP blots
Binder,binding [1],binding [2],binding [3]
"NON-PHOTOTROPIC HYPOCOTYL 3 (NPH3), yeast two-hybrid fusion (protein, UniProt Q9FMF5 1-746) MMWESESDGGVGVGGGGGREYGDGVLSSNKHGGVKTDGFELRGQSWFVATDIPSDLLVKIGDMNFHLHKYPLLSRSGKMNRLIYESRDPDPTILILDDLPGGPEAFELASKFCYGVPVDLTATNISGLRCAAEYLEMTEDLEEGNLIFKTEAFLSYVVLSSWRDSILVLKSCEKLSPWAENLQIVRRCSESIAWKACSNPKGIRWAYTGKAPSPSTTNFAGSSPRWNESKDSSFYCSPSRNTNSQPVPPDWWFEDVSILRIDHFVRVITAIKVKGMRFELLGAVIMHYAGKWLPGLIKEGGVAIAPAMSSAIGGGLGLGGDEMSISCGSNSSGGSSGPDWKGGLHMVLSAGKTNGHQDSVACLAGLGISPKDQRMIVESLISIIPPQKDSVTCSFLLRLLRAANMLKVAPALITELEKRVGMQFEQATLQDLLIPGYNNKGETMYDVDLVQRLLEHFLVQEQTEGSSPSRMSPSPSQSMYADIPRGNNNNGGGGGGNNQNAKMRVARLVDSYLTEVARDRNLPLTKFQVLAEALPESARTCDDGLYRAIDSYLKAHPTLSEHERKRLCRVMDCQKLSMDACMHAAQNERLPLRVVVQVLFSEQVKISNALANTSLKESTTLGEAMGTYQPMIPNRKTLIEATPQSFQEGWAAAKKDINTLKFELETVKTKYVELQNEMEVMQRQFEKTGKVKNTPSSSAWTSGWKKLSKLTKMSGQESHDISSGGEQAGVDHPPPRKPRRWRNSIS",binds,binds,
"mCherry:NPH3-S744A (protein, UniProt Q9FMF5 1-746) MMWESESDGGVGVGGGGGREYGDGVLSSNKHGGVKTDGFELRGQSWFVATDIPSDLLVKIGDMNFHLHKYPLLSRSGKMNRLIYESRDPDPTILILDDLPGGPEAFELASKFCYGVPVDLTATNISGLRCAAEYLEMTEDLEEGNLIFKTEAFLSYVVLSSWRDSILVLKSCEKLSPWAENLQIVRRCSESIAWKACSNPKGIRWAYTGKAPSPSTTNFAGSSPRWNESKDSSFYCSPSRNTNSQPVPPDWWFEDVSILRIDHFVRVITAIKVKGMRFELLGAVIMHYAGKWLPGLIKEGGVAIAPAMSSAIGGGLGLGGDEMSISCGSNSSGGSSGPDWKGGLHMVLSAGKTNGHQDSVACLAGLGISPKDQRMIVESLISIIPPQKDSVTCSFLLRLLRAANMLKVAPALITELEKRVGMQFEQATLQDLLIPGYNNKGETMYDVDLVQRLLEHFLVQEQTEGSSPSRMSPSPSQSMYADIPRGNNNNGGGGGGNNQNAKMRVARLVDSYLTEVARDRNLPLTKFQVLAEALPESARTCDDGLYRAIDSYLKAHPTLSEHERKRLCRVMDCQKLSMDACMHAAQNERLPLRVVVQVLFSEQVKISNALANTSLKESTTLGEAMGTYQPMIPNRKTLIEATPQSFQEGWAAAKKDINTLKFELETVKTKYVELQNEMEVMQRQFEKTGKVKNTPSSSAWTSGWKKLSKLTKMSGQESHDISSGGEQAGVDHPPPRKPRRWRNAIS",,,no binding
"NPH3ΔN54, yeast two-hybrid fusion (domain or fragment, UniProt Q9FMF5 55-746) DLLVKIGDMNFHLHKYPLLSRSGKMNRLIYESRDPDPTILILDDLPGGPEAFELASKFCYGVPVDLTATNISGLRCAAEYLEMTEDLEEGNLIFKTEAFLSYVVLSSWRDSILVLKSCEKLSPWAENLQIVRRCSESIAWKACSNPKGIRWAYTGKAPSPSTTNFAGSSPRWNESKDSSFYCSPSRNTNSQPVPPDWWFEDVSILRIDHFVRVITAIKVKGMRFELLGAVIMHYAGKWLPGLIKEGGVAIAPAMSSAIGGGLGLGGDEMSISCGSNSSGGSSGPDWKGGLHMVLSAGKTNGHQDSVACLAGLGISPKDQRMIVESLISIIPPQKDSVTCSFLLRLLRAANMLKVAPALITELEKRVGMQFEQATLQDLLIPGYNNKGETMYDVDLVQRLLEHFLVQEQTEGSSPSRMSPSPSQSMYADIPRGNNNNGGGGGGNNQNAKMRVARLVDSYLTEVARDRNLPLTKFQVLAEALPESARTCDDGLYRAIDSYLKAHPTLSEHERKRLCRVMDCQKLSMDACMHAAQNERLPLRVVVQVLFSEQVKISNALANTSLKESTTLGEAMGTYQPMIPNRKTLIEATPQSFQEGWAAAKKDINTLKFELETVKTKYVELQNEMEVMQRQFEKTGKVKNTPSSSAWTSGWKKLSKLTKMSGQESHDISSGGEQAGVDHPPPRKPRRWRNSIS",binds,binds,

# The remaining lines, values ahead:
binding [1],binding [2],binding [3],Binder
no binding,no binding,,"NPH3-S744D, yeast two-hybrid fusion (protein, UniProt Q9FMF5 1-746) MMWESESDGGVGVGGGGGREYGDGVLSSNKHGGVKTDGFELRGQSWFVATDIPSDLLVKIGDMNFHLHKYPLLSRSGKMNRLIYESRDPDPTILILDDLPGGPEAFELASKFCYGVPVDLTATNISGLRCAAEYLEMTEDLEEGNLIFKTEAFLSYVVLSSWRDSILVLKSCEKLSPWAENLQIVRRCSESIAWKACSNPKGIRWAYTGKAPSPSTTNFAGSSPRWNESKDSSFYCSPSRNTNSQPVPPDWWFEDVSILRIDHFVRVITAIKVKGMRFELLGAVIMHYAGKWLPGLIKEGGVAIAPAMSSAIGGGLGLGGDEMSISCGSNSSGGSSGPDWKGGLHMVLSAGKTNGHQDSVACLAGLGISPKDQRMIVESLISIIPPQKDSVTCSFLLRLLRAANMLKVAPALITELEKRVGMQFEQATLQDLLIPGYNNKGETMYDVDLVQRLLEHFLVQEQTEGSSPSRMSPSPSQSMYADIPRGNNNNGGGGGGNNQNAKMRVARLVDSYLTEVARDRNLPLTKFQVLAEALPESARTCDDGLYRAIDSYLKAHPTLSEHERKRLCRVMDCQKLSMDACMHAAQNERLPLRVVVQVLFSEQVKISNALANTSLKESTTLGEAMGTYQPMIPNRKTLIEATPQSFQEGWAAAKKDINTLKFELETVKTKYVELQNEMEVMQRQFEKTGKVKNTPSSSAWTSGWKKLSKLTKMSGQESHDISSGGEQAGVDHPPPRKPRRWRNDIS"
no binding,no binding,,"NPH3-S744A, yeast two-hybrid fusion (protein, UniProt Q9FMF5 1-746) MMWESESDGGVGVGGGGGREYGDGVLSSNKHGGVKTDGFELRGQSWFVATDIPSDLLVKIGDMNFHLHKYPLLSRSGKMNRLIYESRDPDPTILILDDLPGGPEAFELASKFCYGVPVDLTATNISGLRCAAEYLEMTEDLEEGNLIFKTEAFLSYVVLSSWRDSILVLKSCEKLSPWAENLQIVRRCSESIAWKACSNPKGIRWAYTGKAPSPSTTNFAGSSPRWNESKDSSFYCSPSRNTNSQPVPPDWWFEDVSILRIDHFVRVITAIKVKGMRFELLGAVIMHYAGKWLPGLIKEGGVAIAPAMSSAIGGGLGLGGDEMSISCGSNSSGGSSGPDWKGGLHMVLSAGKTNGHQDSVACLAGLGISPKDQRMIVESLISIIPPQKDSVTCSFLLRLLRAANMLKVAPALITELEKRVGMQFEQATLQDLLIPGYNNKGETMYDVDLVQRLLEHFLVQEQTEGSSPSRMSPSPSQSMYADIPRGNNNNGGGGGGNNQNAKMRVARLVDSYLTEVARDRNLPLTKFQVLAEALPESARTCDDGLYRAIDSYLKAHPTLSEHERKRLCRVMDCQKLSMDACMHAAQNERLPLRVVVQVLFSEQVKISNALANTSLKESTTLGEAMGTYQPMIPNRKTLIEATPQSFQEGWAAAKKDINTLKFELETVKTKYVELQNEMEVMQRQFEKTGKVKNTPSSSAWTSGWKKLSKLTKMSGQESHDISSGGEQAGVDHPPPRKPRRWRNAIS"
no binding,no binding,,"NPH3-S744E, yeast two-hybrid fusion (protein, UniProt Q9FMF5 1-746) MMWESESDGGVGVGGGGGREYGDGVLSSNKHGGVKTDGFELRGQSWFVATDIPSDLLVKIGDMNFHLHKYPLLSRSGKMNRLIYESRDPDPTILILDDLPGGPEAFELASKFCYGVPVDLTATNISGLRCAAEYLEMTEDLEEGNLIFKTEAFLSYVVLSSWRDSILVLKSCEKLSPWAENLQIVRRCSESIAWKACSNPKGIRWAYTGKAPSPSTTNFAGSSPRWNESKDSSFYCSPSRNTNSQPVPPDWWFEDVSILRIDHFVRVITAIKVKGMRFELLGAVIMHYAGKWLPGLIKEGGVAIAPAMSSAIGGGLGLGGDEMSISCGSNSSGGSSGPDWKGGLHMVLSAGKTNGHQDSVACLAGLGISPKDQRMIVESLISIIPPQKDSVTCSFLLRLLRAANMLKVAPALITELEKRVGMQFEQATLQDLLIPGYNNKGETMYDVDLVQRLLEHFLVQEQTEGSSPSRMSPSPSQSMYADIPRGNNNNGGGGGGNNQNAKMRVARLVDSYLTEVARDRNLPLTKFQVLAEALPESARTCDDGLYRAIDSYLKAHPTLSEHERKRLCRVMDCQKLSMDACMHAAQNERLPLRVVVQVLFSEQVKISNALANTSLKESTTLGEAMGTYQPMIPNRKTLIEATPQSFQEGWAAAKKDINTLKFELETVKTKYVELQNEMEVMQRQFEKTGKVKNTPSSSAWTSGWKKLSKLTKMSGQESHDISSGGEQAGVDHPPPRKPRRWRNEIS"
no binding,no binding,,"NPH3ΔC51, yeast two-hybrid fusion (domain or fragment, UniProt Q9FMF5 1-695) MMWESESDGGVGVGGGGGREYGDGVLSSNKHGGVKTDGFELRGQSWFVATDIPSDLLVKIGDMNFHLHKYPLLSRSGKMNRLIYESRDPDPTILILDDLPGGPEAFELASKFCYGVPVDLTATNISGLRCAAEYLEMTEDLEEGNLIFKTEAFLSYVVLSSWRDSILVLKSCEKLSPWAENLQIVRRCSESIAWKACSNPKGIRWAYTGKAPSPSTTNFAGSSPRWNESKDSSFYCSPSRNTNSQPVPPDWWFEDVSILRIDHFVRVITAIKVKGMRFELLGAVIMHYAGKWLPGLIKEGGVAIAPAMSSAIGGGLGLGGDEMSISCGSNSSGGSSGPDWKGGLHMVLSAGKTNGHQDSVACLAGLGISPKDQRMIVESLISIIPPQKDSVTCSFLLRLLRAANMLKVAPALITELEKRVGMQFEQATLQDLLIPGYNNKGETMYDVDLVQRLLEHFLVQEQTEGSSPSRMSPSPSQSMYADIPRGNNNNGGGGGGNNQNAKMRVARLVDSYLTEVARDRNLPLTKFQVLAEALPESARTCDDGLYRAIDSYLKAHPTLSEHERKRLCRVMDCQKLSMDACMHAAQNERLPLRVVVQVLFSEQVKISNALANTSLKESTTLGEAMGTYQPMIPNRKTLIEATPQSFQEGWAAAKKDINTLKFELETVKTKYVELQNEMEVMQRQFEKTGKVKNTP"

# Source: paper PMC8531446, “Light-triggered and phosphorylation-dependent 14-3-3 association with NON-PHOTOTROPIC HYPOCOTYL 3 is required for hypocotyl phototropism” (Nature Communications, 2021)
